The densities may have been worked out from excess volumes.
Experiment: xn = mol fraction of the nth substance listed
Conditions: 101.3 kPa

CCCC[N+]1(C)CCCC1.N#C[C-](C#N)C#N + O
Conditions | mass density [kg/m3]
293.15 K, x2 = 0 | 1008.5
293.15 K, x2 = 0.0734 | 1008.4
293.15 K, x2 = 0.2046 | 1007.7
293.15 K, x2 = 0.3056 | 1007.2
293.15 K, x2 = 0.3806 | 1006.9
293.15 K, x2 = 0.5091 | 1006.3
293.15 K, x2 = 0.6071 | 1005.9
293.15 K, x2 = 0.6987 | 1005.7
293.15 K, x2 = 0.8009 | 1005.6
303.15 K, x2 = 0 | 1003.2
303.15 K, x2 = 0.0734 | 1002.7
303.15 K, x2 = 0.2046 | 1001.9
303.15 K, x2 = 0.3056 | 1001.3
303.15 K, x2 = 0.3806 | 1000.8
303.15 K, x2 = 0.6987 | 999.1
303.15 K, x2 = 0.8009 | 998.9
313.15 K, x2 = 0 | 997.4
313.15 K, x2 = 0.313 | 995.1
313.15 K, x2 = 0.397 | 994.5
313.15 K, x2 = 0.5171 | 993.6
313.15 K, x2 = 0.6069 | 993.1
313.15 K, x2 = 0.6976 | 992.5
313.15 K, x2 = 0.8005 | 992.3
323.15 K, x2 = 0 | 991.5
323.15 K, x2 = 0.2139 | 989.8
323.15 K, x2 = 0.313 | 989.1
323.15 K, x2 = 0.5171 | 987.3
323.15 K, x2 = 0.6069 | 986.7
323.15 K, x2 = 0.6976 | 986
323.15 K, x2 = 0.8005 | 985.3

CCCC[n+]1ccc(C)cc1.N#C[C-](C#N)C#N + O
mass density [kg/m3]
Conditions | x2 = 0 | x2 = 0.1362 | x2 = 0.22 | x2 = 0.3297 | x2 = 0.4198 | x2 = 0.5254 | x2 = 0.6313 | x2 = 0.7156 | x2 = 0.8096
293.15 K | 1038 | – | 1036.5 | 1035.3 | 1034.2 | 1032.7 | – | 1029 | 1026
303.15 K | – | 1030.9 | 1030 | 1028.8 | 1027.6 | 1026 | 1024 | 1022 | 1019.1
313.15 K | – | 1024.6 | 1023.7 | – | 1021.1 | 1019.4 | 1017.2 | 1015.2 | 1012
323.15 K | 1020.1 | 1018.5 | 1017.5 | 1016.1 | 1014.7 | 1012.9 | – | 1008.3 | –

CCCC[n+]1ccn(C)c1.N#C[C-](C#N)C#N + O
Conditions | mass density [kg/m3]
293.15 K, x2 = 0 | 1050.5
293.15 K, x2 = 0.2063 | 1047.7
293.15 K, x2 = 0.5025 | 1042.3
293.15 K, x2 = 0.5971 | 1040.2
293.15 K, x2 = 0.7035 | 1037.2
293.15 K, x2 = 0.8016 | 1033.6
303.15 K, x2 = 0.1497 | 1041.5
303.15 K, x2 = 0.1986 | 1040.7
303.15 K, x2 = 0.3091 | 1039.2
303.15 K, x2 = 0.5999 | 1033.9
303.15 K, x2 = 0.6982 | 1031.1
303.15 K, x2 = 0.8004 | 1027.3
313.15 K, x2 = 0 | 1039.6
313.15 K, x2 = 0.1412 | 1038
313.15 K, x2 = 0.2063 | 1037
313.15 K, x2 = 0.3051 | 1035.5
313.15 K, x2 = 0.3932 | 1033.9
313.15 K, x2 = 0.5025 | 1032
313.15 K, x2 = 0.7035 | 1026.7
323.15 K, x2 = 0.1412 | 1028.3
323.15 K, x2 = 0.2063 | 1027.2
323.15 K, x2 = 0.3051 | 1025.6
323.15 K, x2 = 0.3932 | 1023.6
323.15 K, x2 = 0.5014 | 1021.5
323.15 K, x2 = 0.6977 | 1016.4
323.15 K, x2 = 0.8 | 1012.4

Reference: a compilation of properties of binary mixtures (doi:10.1007/s10953-021-01072-9)
